In PubChem BioAssay (Tox21):
“And” between values parts separate entries of the source, which are not always exact repeats. Equal entries are not always repeated. Inconclusive means that the source gave no clear call. Such entries were picked first, then a sample of the others. Potencies of inconclusive entries are doubtful fits and often do not repeat. The source made the active and inactive calls. Calls follow the shape of the dose curve; as a rule, active = well fitted inhibition curve with a large enough effect in the signal ratio in the repeat runs (not every such curve was filed as active); inconclusive = weak or mixed curves, or effect the other way; inactive = no such curve, though single readings can be large or run the other way; the % refers to the signal ratio.

The compounds below were run against Glucocorticoid receptor (Homo sapiens) (UniProt P04150) (assay: qHTS assay to identify small molecule antagonists of the glucocorticoid receptor (GR) signaling pathway (AID 720692)). Conditions: GR-bla HeLa, beta-lactamase FRET ratio, dexamethasone-stimulated, 18 h; activity change, negative = inhibition: at 58.5 µM (top of the series) unless noted.
Method in brief: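 Inhibition of dexamethasone-driven (5 nM final) beta-lactamase expression was measured in GRE-reporter HeLa cells over 18 h at 37C. Fluorescence was read after 2 h with the B/G FRET substrate at room temperature.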
% is scaled to controls: 0 for no effect and ±100 for the full control effect; potency is read from the fitted curve at half-maximal effect; tags tell the direction and shape of the fitted curve or compound fluorescence and quenching.

UniProt P04150, sequence (P04150 whole entry, looked up): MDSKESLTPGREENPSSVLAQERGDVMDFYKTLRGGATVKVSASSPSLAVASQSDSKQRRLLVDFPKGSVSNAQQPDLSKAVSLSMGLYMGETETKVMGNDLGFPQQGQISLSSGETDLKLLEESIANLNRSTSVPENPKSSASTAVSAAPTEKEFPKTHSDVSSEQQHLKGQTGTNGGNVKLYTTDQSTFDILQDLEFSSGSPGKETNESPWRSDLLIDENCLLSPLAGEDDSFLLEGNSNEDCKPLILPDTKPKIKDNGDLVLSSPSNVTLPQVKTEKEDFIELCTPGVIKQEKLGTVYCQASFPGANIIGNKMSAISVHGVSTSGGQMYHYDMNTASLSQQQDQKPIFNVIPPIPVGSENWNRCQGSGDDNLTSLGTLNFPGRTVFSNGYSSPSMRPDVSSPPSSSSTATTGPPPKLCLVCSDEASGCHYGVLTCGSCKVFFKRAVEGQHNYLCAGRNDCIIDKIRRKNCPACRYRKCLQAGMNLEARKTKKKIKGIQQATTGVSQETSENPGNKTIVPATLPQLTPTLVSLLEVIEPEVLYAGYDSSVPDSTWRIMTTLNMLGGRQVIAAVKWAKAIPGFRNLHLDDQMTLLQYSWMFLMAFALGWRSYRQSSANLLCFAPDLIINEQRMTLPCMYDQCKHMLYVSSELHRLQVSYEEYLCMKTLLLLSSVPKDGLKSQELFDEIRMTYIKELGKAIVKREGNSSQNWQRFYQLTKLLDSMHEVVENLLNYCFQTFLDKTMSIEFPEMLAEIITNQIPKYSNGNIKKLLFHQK

SMILES | Potency | activity change, negative = inhibition
C=CC(=O)OCC(CO)(COC(=O)C=C)COC(=O)C=C | inconclusive: 15.5 µM [cytotoxic, full curve] and inconclusive: 43.6 µM [cytotoxic, partial curve] | 
CCC(C)c1ccccc1O (centres undefined) | inactive | 
C[C@H](CCC(=O)O)[C@H]1CC[C@H]2[C@@H]3CC[C@@H]4C[C@H](O)CC[C@]4(C)[C@H]3CC[C@]12C | active: 19.4 µM and active: 43.6 µM | 
CN1C(C(=O)Nc2ccccn2)=C(O)c2ccccc2S1(=O)=O |  | inconclusive: -18% [at 78.9 µM]
COc1cc(CNC(=O)CCCC/C=C/C(C)C)ccc1O |  | inconclusive: 17.8%
C=C(C)C(=O)OCCC[Si](Cl)(Cl)Cl |  | inconclusive: -14.6% [at 78.9 µM]
Cc1ncc([N+](=O)[O-])n1CC(O)CCl (centres undefined) |  | inactive: -9.24% [at 27 µM]
CCC1COC(=O)O1 (centres undefined) |  | inconclusive: 14.4%
CCO[C@@H]1O[C@H](C(COCc2ccccc2)OCc2ccccc2)[C@H](OCc2ccccc2)[C@H]1O (some centres undefined) |  | inconclusive: -3.36% [at 27 µM]
